# Results taken from PubChem BioAssay (NCATS).
# The inconclusive results got no clear call from the source; some entries with a clear call stand among them for comparison. For some assays here: No potency is given beside an inconclusive call; the fits are too rough. Active and inactive are the calls of the source. The call rests on the fitted dose curve; in most records, active means well fitted curve in the direction sought with a large enough effect; inconclusive means small, poorly fitted or top-dose-only effect, or another doubt; inactive means no such curve, though single readings can be large; an effect the other way counts as inactive or inconclusive.
# Tests used:
# [1] = qHTS of pediatric cancer cell lines to identify multiple opportunities for drug repurposing: Primary screen for NB-EBc1 cells (AID 1347095); further: potency means the concentration at half of the fitted maximal effect
# Summary of the method: (§1)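 Plated cells (500-1,000 per well, growth media) were allowed to settle for 5 hours, treated with compound dilutions for 48 hours, then lysed with CellTiter-Glo for 15 min at room temperature before luminescence reading.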
# [2] = qHTS of pediatric cancer cell lines to identify multiple opportunities for drug repurposing: Primary screen for U-2 OS cells (AID 1347096); further: potency means the concentration at half of the fitted maximal effect; nearly all actives have a fitted effect of over 50% in size
# Summary of the method: (§2)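 Cells (500-1,000/well) rested 5 h, then received compounds for 48 h; metabolically active cells were measured by CellTiter-Glo luminescence. Final concentrations spanned up to 46 µM (MIPE, 11-point) or 0.59 nM-46 µM (NPC, 8-point) in primary screens, 11-point in follow-ups.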
# [3] = qHTS of pediatric cancer cell lines to identify multiple opportunities for drug repurposing: Primary screen for LAN-5 cells (AID 1347100); details: LAN-5 neuroblastoma viability, CellTiter-Glo luminescence, 48 h; activity change, negative = cytotoxic: at 46 µM (top of the series); further: potency means the concentration at half of the fitted maximal effect
# Summary of the method: as §2
# [4] = qHTS of pediatric cancer cell lines to identify multiple opportunities for drug repurposing: Primary screen for BT-12 cells (AID 1347101); further: potency means the concentration at half of the fitted maximal effect; nearly all actives have a fitted effect of over 25% in size
# Summary of the method: as §2
# [5] = qHTS of pediatric cancer cell lines to identify multiple opportunities for drug repurposing: Primary screen for OHS-50 cells (AID 1347103); further: nearly all actives have a fitted effect of over 40% in size; further: potency means the concentration at half of the fitted maximal effect
# Summary of the method: as §2
# [6] = qHTS of pediatric cancer cell lines to identify multiple opportunities for drug repurposing: Primary screen for Saos-2 cells (AID 1347097); details: Saos-2 viability, CellTiter-Glo ATP luminescence, 48 h; activity change, negative = cytotoxic: at 46 µM (top of the series); further: nearly all actives have a fitted effect of over 40% in size; further: potency means the concentration at half of the fitted maximal effect
# Summary of the method: as §1
# [7] = qHTS of pediatric cancer cell lines to identify multiple opportunities for drug repurposing: Primary screen for SK-N-SH cells (AID 1347098); details: SK-N-SH viability, CellTiter-Glo luminescence, 48 h; activity change, negative = cytotoxic: at 57 µM (top of the series); further: potency means the concentration at half of the fitted maximal effect; nearly all actives have a fitted effect of over 65% in size
# Summary of the method: as §2
# [8] = qHTS of pediatric cancer cell lines to identify multiple opportunities for drug repurposing: Primary screen for NB1643 cells (AID 1347099); further: nearly all actives have a fitted effect of over 50% in size; further: potency means the concentration at half of the fitted maximal effect
# Summary of the method: as §1
# [9] = qHTS of pediatric cancer cell lines to identify multiple opportunities for drug repurposing: Primary screen for RD cells (AID 1347104); further: potency means the concentration at half of the fitted maximal effect; nearly all actives have a fitted effect of over 55% in size
# Summary of the method: as §1
# [10] = qHTS of pediatric cancer cell lines to identify multiple opportunities for drug repurposing: Primary screen for Rh18 cells (AID 1347102); further: nearly all actives have a fitted effect of over 65% in size
# Summary of the method: as §2
# Tags describe the fitted curve by direction and shape.
SMILES,Potency [1],Potency [2],Potency [3],Potency [4],Potency [5],Potency [6],Potency [7],Potency [8],Potency [9],Potency [10]
CCOC(=O)N[C@@H]1CC[C@@H]2[C@@H](C1)C[C@H]1C(=O)O[C@H](C)[C@H]1[C@@H]2C=Cc1ccc(-c2cccc(F)c2)cn1,"inconclusive [cytotoxic, partial curve]","inconclusive [cytotoxic, partial curve, poor fit]","inconclusive [cytotoxic, partial curve]","inconclusive [cytotoxic, single point]","inconclusive [cytotoxic, single point]",–,–,–,–,–
CN(C)CCC=C1c2ccccc2COc2ccc(CC(=O)O)cc21,inactive,–,–,–,inactive,inactive,"inconclusive [cytotoxic, single point]","inconclusive [cytotoxic, single point]","inconclusive [cytotoxic, single point]",–
C=C1C(=O)OC(CCCCCCCC)C1C(=O)O (stereo not given),"inconclusive [cytotoxic, single point]",–,–,–,–,"inconclusive [cytotoxic, partial curve]","inconclusive [cytotoxic, single point]",inactive,–,inactive
O=C(NCc1ccncc1)C12C[C@H]3C[C@@H](C1)CC(c1ccc(Cl)cc1)(C3)C2,active: 18.7 µM,"inconclusive [cytotoxic, partial curve, poor fit]","inconclusive [cytotoxic, single point]","inconclusive [cytotoxic, single point]",–,–,–,–,–,–
